In all, about 81,000 sequences were measured (“one-hybrid fitness for binding NBS DNA”: median about -0.1, highest 2% from about 0.36 on). The list shows a part of the results.

Data on 97 variants can be found in a collection of fitness landscapes (doi:10.1016/j.celrep.2020.107928).

Sequences and labels used below:
B1: Caulobacter ParB omega fusion; a variant is named by its letters at X, in order, B8GW30 (parent)
chain: MESVVVGEPGMSEGRRGLGRGLSALLGEVDAAPAQAPGEQLGGSREAPIEILQRNPDQPRRTFREEDLEDLSNSIREKGVLQPILVRPSPDTAGEYQIVAGERAWRAAQRAGLKTVPIMVRELDDLAVLEIGIIENVQRADLNVLEEALSYKVLMEKFERTQENIAQTIGKSXSHVANXMRLLXLPDEVQSYLVSGELTAXHARAIAAAADPVALAKQIIEGGLSVRETEALARKAPNLSAGKSKGGRPPRVKDTDTQALESDLSSVLGLDVSIDHRGSTGTLTITYATLEQLDDLCNRLTRGI

The variants in this assay derive from B1. Description: one-hybrid fitness for binding NBS DNA (the Noc-binding site; scaled: cognate 1, non-cognate 0); higher = stronger binding. To be noted: with NBS DNA site. The method in brief:
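Fitness is the rescaled log change in variant-to-wild-type read ratio, measured by Illumina sequencing of plasmids before and after bacterial one-hybrid selection. The scale puts cognate at 1 and non-cognate at 0. Selection of Caulobacter ParB libraries, four specificity codons randomised, took place in E. coli USO with a HIS3 reporter, site 19 bp from the promoter, over 48 hours at 37°C on M9-minus-histidine with 0.1 mM IPTG and 5 mM 3-AT.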
As for QKMN, the “one-hybrid fitness for binding NBS DNA” value was at most 0.2. For the variant ISKL, the “one-hybrid fitness for binding NBS DNA” value was at most 0.2.

Take YGWG: the “one-hybrid fitness for binding NBS DNA” value is at most 0.2. In the case of QDCR it was at most 0.2. The same measure for RKGY: 0.209; for NCYC: at most 0.2; for TGNR: at most 0.2.

For the variant SQCC, the “one-hybrid fitness for binding NBS DNA” value was at most 0.2. For PEGC, the “one-hybrid fitness for binding NBS DNA” value was at most 0.2.

With KKGL, the “one-hybrid fitness for binding NBS DNA” value was at most 0.2. The same measure for QRGC: 0.402.

As for HGSG, the “one-hybrid fitness for binding NBS DNA” value was at most 0.2. In the case of VSYR it was at most 0.2; in that of EIAF, 0.266. In the case of HPRY it was at most 0.2; in that of LALQ, at most 0.2; in that of AMGA, at most 0.2. The same measure for RESV: at most 0.2; for NHHP: at most 0.2; for LCWA: at most 0.2. Consider RGIE, for which the “one-hybrid fitness for binding NBS DNA” value is at most 0.2. NHYG: the “one-hybrid fitness for binding NBS DNA” value was at most 0.2. The same measure for LAIG: at most 0.2. The same measure for RDAV: at most 0.2; for AAYP: at most 0.2. The same measure for TQLR: at most 0.2; for HYGS: at most 0.2; for RNNY: at most 0.2. On to VGLC, for which the “one-hybrid fitness for binding NBS DNA” value is at most 0.2. In the case of CQLG, the “one-hybrid fitness for binding NBS DNA” value is at most 0.2.

For AYPW, the “one-hybrid fitness for binding NBS DNA” value was at most 0.2. The same measure for PIIT: at most 0.2.

With ALIT, the “one-hybrid fitness for binding NBS DNA” value was at most 0.2. In the case of MATP it was at most 0.2.

Regarding LNKR, the “one-hybrid fitness for binding NBS DNA” value is at most 0.2. The same measure for SNHE: at most 0.2.

For the variant AVLQ, the “one-hybrid fitness for binding NBS DNA” value is at most 0.2. In the case of KWSC it was at most 0.2; in that of ITFC, at most 0.2; in that of PRAY, at most 0.2. Consider NNTR, for which the “one-hybrid fitness for binding NBS DNA” value was at most 0.2.

WKTG: the “one-hybrid fitness for binding NBS DNA” value is at most 0.2. In the case of QEVV it was at most 0.2; in that of VLEL, at most 0.2. In the case of ARND it was at most 0.2; in that of SNHI, at most 0.2. In the case of ETMT it was at most 0.2. On to NPYW, for which the “one-hybrid fitness for binding NBS DNA” value is at most 0.2.

Take QQDS: the “one-hybrid fitness for binding NBS DNA” value is 0.282. The same measure for RMYG: at most 0.2. On to WLTW, for which the “one-hybrid fitness for binding NBS DNA” value was at most 0.2. In the case of LLIN it was at most 0.2; in that of HTHH, at most 0.2; in that of PYLD, at most 0.2.

Regarding SSQS, the “one-hybrid fitness for binding NBS DNA” value is at most 0.2. As for DYMC, the “one-hybrid fitness for binding NBS DNA” value is at most 0.2. The same measure for LASW: at most 0.2; for SCTY: at most 0.2; for MRRF: at most 0.2. In the case of EIGA it was at most 0.2. The same measure for TPSV: at most 0.2; for ANSG: at most 0.2; for FAMG: at most 0.2. Consider CVRP, for which the “one-hybrid fitness for binding NBS DNA” value is at most 0.2. In the case of IERS it was at most 0.2; in that of VPNM, at most 0.2; in that of LMTI, at most 0.2. The same measure for RQPD: at most 0.2; for RRRW: 0.285. In the case of TYPR it was at most 0.2; in that of DHKA, at most 0.2.

Consider PLAA, for which the “one-hybrid fitness for binding NBS DNA” value was at most 0.2. On to VWSH, for which the “one-hybrid fitness for binding NBS DNA” value is at most 0.2. In the case of ILQT it was at most 0.2; in that of SLLM, at most 0.2; in that of LTPA, at most 0.2.

On to KREL, for which the “one-hybrid fitness for binding NBS DNA” value is at most 0.2. In the case of HYRC it was at most 0.2; in that of GFCG, at most 0.2; in that of DMLT, at most 0.2. In the case of KGTY it was at most 0.2. The same measure for DRTF: at most 0.2. For VLHW, the “one-hybrid fitness for binding NBS DNA” value was at most 0.2. In the case of RLPP it was at most 0.2. Take RGDT: the “one-hybrid fitness for binding NBS DNA” value is at most 0.2. As to HPCS, the “one-hybrid fitness for binding NBS DNA” value is at most 0.2. In the case of EWPR it was at most 0.2. In the case of NRDH it was at most 0.2. With LLLD, the “one-hybrid fitness for binding NBS DNA” value is at most 0.2.

Regarding AEGG, the “one-hybrid fitness for binding NBS DNA” value was at most 0.2. Regarding GINS, the “one-hybrid fitness for binding NBS DNA” value is at most 0.2. The same measure for SALF: at most 0.2; for NGPQ: at most 0.2; for PCPL: at most 0.2. In the case of GCVG it was at most 0.2. The same measure for LYHW: at most 0.2; for VGIC: at most 0.2.
